Measured values taken from PubChem BioAssay AID504832 (National Center for Advancing Translational Sciences (NCATS), 2011).
In all, about 310,000 compounds went through this assay and about 18,000 (5.8%) were called active. Inconclusive means that the source gave no clear call. Such entries were picked first, then a sample of the others. Calls follow the shape of the dose curve; as a rule, active = well fitted inhibition curve with a large enough effect; inconclusive = small, poorly fitted or top-dose-only effect, or another doubt; inactive = no such curve, though single readings can be large or run the other way. Potencies of inconclusive entries are left out as doubtful fits.
% is scaled to controls: 0 for no effect and ±100 for the full control effect; potency is read from the fitted curve at half-maximal effect; tags tell the direction and shape of the fitted curve.

Assay: Primary qHTS for delayed death inhibitors of the malarial parasite plastid, 48 hour incubation
Conditions: P. falciparum luciferase growth in erythrocytes; series mostly up to 28.7 µM; activity change, negative = inhibition: at the top concentration
Outline: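 Parasite viability was followed by luminescence of a genomically integrated firefly luciferase. Cultures held 0.1% parasitemia at 2% hematocrit (final), incubated under 5% CO2 at 37 C.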
In the case of CC(=O)Nc1ccc(NC(=O)CSc2nnnn2-c2ccc(F)cc2)cc1, the Potency is reported as inconclusive [inhibitor, single point]. For Cc1ccc(C(=O)Oc2cc(N)n(S(=O)(=O)c3ccc(C)cc3)n2)cc1, the “activity change, negative = inhibition” value was inactive: -3.07%. In the case of COc1ccccc1NC(=O)c1ccc(Cl)c(S(=O)(=O)N2CCOCC2)c1, the Potency is reported as inconclusive [inhibitor, single point]. In the case of COc1ccc(NC(=O)c2c(NC(=O)CNCc3ccco3)sc3c2CCC3)cc1, the Potency is reported as active: 2.62 µM. With CCOc1ccccc1NC(=O)CSc1nnc(-c2cccnc2)o1 the “activity change, negative = inhibition” value was inactive: 22%. For O=C(Cc1ccc(Cl)cc1)c1c[nH]c(C(=O)NCCCn2ccnc2)c1, the Potency was inconclusive [inhibitor, single point]. With CCN1CCc2nc3ccccc3c(C(=O)Nc3ccc(F)cc3)c2C1 the Potency was active: 2.08 µM. With COc1ccc(S(=O)(=O)N2CCC(C(=O)NC3CC3)CC2)cc1C the Potency was inconclusive [inhibitor, partial curve]. For CCN1CCN(c2ccc(S(=O)(=O)N3CCOCC3)cc2NC(=O)c2ccc(Cl)s2)CC1, the Potency was inconclusive [inhibitor, single point]. For O=C(c1ccc2c(c1)OCCO2)N1CCN(Cc2c(F)cccc2Cl)CC1, the Potency was inconclusive [inhibitor, single point]. In the case of CC(C)c1nc(CNC(=O)C2CCC(=O)N(Cc3ccc(Cl)cc3)C2)no1 (centres undefined), the Potency is reported as inconclusive [inhibitor, single point]. With Cc1ccc(-n2c(SCC(=O)NC3CCS(=O)(=O)C3)nc3ccccc3c2=O)cc1C (centres undefined) the Potency was inconclusive [inhibitor, partial curve]. In the case of COC(=O)CN1C(=O)C(C)(C)Oc2ccc(C(=O)Nc3cccc(OC)c3)cc21, the Potency is reported as inconclusive [inhibitor, full curve, poor fit]. With Cc1ccccc1OCCn1c(=O)oc2ccccc21 the Potency was inconclusive [inhibitor, single point]. For COc1ccc(/C=N/Nc2nc(NCc3ccco3)nc(Nc3ccc(OC)cc3)n2)cc1, the Potency was active: 14.7 µM. With Cn1c(=O)c2c(nc(-n3ccnc3)n2Cc2ccc(Cl)cc2Cl)n(C)c1=O the Potency was inconclusive [inhibitor, single point]. With COCCOC(=O)c1[nH]c2c(c1C)C(=O)CC(c1ccc(OC)cc1)C2 (centres undefined) the “activity change, negative = inhibition” value was inactive: 10.8%. For CCN(C(=O)CSc1nc2ccccc2n1C)C1CCS(=O)(=O)C1 (centres undefined), the “activity change, negative = inhibition” value was inactive: 8.79%. For CCN1CCN(CCCNC(=O)c2ccc(NC(=O)C3=CSCCO3)cc2)CC1, the “activity change, negative = inhibition” value was inactive: 14.5%.
